Measured values: the supplement of paper PMC3334620
The full ranking holds about 33,000 sequences; the median of “E-score (-0.5 to 0.5)” is about -0.01, and the highest 2% start at about 0.26. Some of the results follow.

Target: Ste12 (UniProt P13574)
Assay: PBM E-score (8-mer binding enrichment) (E-score (-0.5 to 0.5)); higher = stronger / more preferred TF binding; most listed sequences are background and not binding sites
Conditions: protein concentration: 200 nM; construct: GST-DNA-binding domain
Outline: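 Universal all-10-mer Agilent arrays, fresh or stripped once, were converted to double-stranded form by primer extension. GST-tagged yeast transcription factors from PURExpress in vitro transcription/translation, full-length or DNA-binding domain only, were applied at about 100-200 nM and detected with fluorescent anti-GST. After masliner normalisation, the Universal PBM Analysis Suite scored each ungapped eight-base word together with its reverse complement by E-score.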

| Sequence | PBM E-score |
| --- | --- |
| CACGTAGG | -0.194 |
| CCCGGGCG | 0.129 |
| ACGTACTG | -0.171 |
| CAGAAGCA | -0.0188 |
| ACGGCTCA | -0.0811 |
| ATACTAAC | 0.146 |
| ACGTGCTC | -0.174 |
| AGCGAGAA | -0.00776 |
| ACGTATCG | -0.108 |
| TCAACAGA | 0.0529 |
| CGCAGTGC | -0.204 |
| CTACCCAC | -0.156 |
| ACGAGTAA | 0.175 |
| GCTCAGTA | -0.0329 |
| ATACAGCG | 0.03 |
| CTTATAAC | 0.181 |
| AAAGTTTG | 0.124 |
| CTCGGCCA | -0.0374 |
| TCCTGTAA | -0.00485 |
| ATGTATTC | 0.149 |
| ACACCTGC | -0.00619 |
| ACAATTCA | -0.0546 |
| ACCTACTG | 0.0397 |
| CTGCGAGA | -0.177 |
| GATCACCC | -0.0484 |

| Sequence | PBM E-score |
| --- | --- |
| ACTGCTGG | -0.112 |
| CGTGCACC | -0.0683 |
| CACTAGAA | -0.00622 |
| CGAATTTC | 0.0534 |
| CACCTCCG | -0.0552 |
| ATCTAGCG | -0.245 |
| CCTTTGGC | -0.0779 |
| AGTGGACA | 0.0605 |
| CGGGATAA | 0.133 |
| AGTTCAGG | -0.127 |
| CACAAACG | 0.107 |
| CCGTGGAC | -0.162 |
| CGCGTATA | 0.0947 |
| CGGATTAA | 0.152 |
| GTCCGAAC | -0.0313 |
| AGGGGCAC | -0.225 |
| CACGGGCC | -0.222 |
| CACGACTA | -0.116 |
| GCTAGCCA | -0.284 |
| GTTACCGA | -0.135 |
| CTCTATGC | -0.00383 |
| TAGAACAA | 0.0985 |
| CGAGGAGC | -0.00929 |
| GCAACTAC | -0.0377 |
| TCCAGCGA | -0.259 |

| Sequence | PBM E-score |
| --- | --- |
| AACAACTA | -0.00598 |
| ATCGTATG | 0.115 |
| CTATAAAA | 0.235 |
| TAGACCGA | 0.0211 |
| CCTCATTC | 0.0342 |
| GCCTAATA | -0.081 |
| ATGCGTCA | -0.0446 |
| AAGTAACC | -0.00977 |
| GCGACAAC | 0.0808 |
| GTACTCCA | -0.26 |
| GAATTCTA | 0.107 |
| GAAGTTCC | -0.138 |
| CCAACGAA | 0.0604 |
| CTGAACCC | -0.0736 |
| AGGTGCGC | 0.0163 |
| CGAACCCC | -0.135 |
| ATGTTGTC | 0.0286 |
| ATAGCATG | -0.237 |
| GGATAAAA | 0.279 |
| AGACACAC | -0.0908 |
| CACGACAC | -0.00344 |
| CCACAAGA | -0.037 |
| CCGGCGGC | -0.0443 |
| ACGTCAGA | -0.103 |
| CGGTGAAG | -0.147 |

| Sequence | PBM E-score |
| --- | --- |
| AAGCCTTC | -0.093 |
| CTGGACTC | -0.106 |
| GTATCATA | 0.163 |
| CCATCAAA | 0.0842 |
| CAGATCAA | 0.00349 |
| GCCAAGCA | -0.00259 |
| ATAGCCCC | -0.137 |
| CCAGAAGC | -0.0194 |
| TAATCTAA | -0.00866 |
| GATACGGC | -0.0222 |
| CTAATACA | 0.0713 |
| AAATAACA | 0.22 |
| GCACACGC | -0.0287 |
| AAGACCCA | -0.0488 |
| AGTGGGAT | -0.00928 |
| CCTTCCCA | 0.127 |
| CGCCCGCG | 0.0652 |
| CGGGTACA | -0.056 |
| CACCGTAG | -0.0576 |
| ACTCCTAT | -0.142 |
| CCTTTCGC | -0.0642 |
| CGTTGGTC | -2e-05 |
| AATTTTAG | 0.105 |
| AGTGCGGC | -0.122 |
| ATACGCTC | -0.00787 |

| Sequence | PBM E-score |
| --- | --- |
| CTACTCTC | -0.244 |
| CCATCGCA | -0.0765 |
| GGCCTATA | -0.0877 |
| AGAAATTG | 0.209 |
| ACGAGCAC | -0.0746 |
| ACCTTCAA | -0.0704 |
| CCATCTCA | -0.0464 |
| CAAGTCGC | -0.3 |
| CCGACAAG | 0.0327 |
| CCCTCTCC | -0.13 |
| ATATGTGA | 0.0926 |
| CCAGTGGA | -0.208 |
| AGTTGAAA | 0.19 |
| CGTTTTGA | 0.275 |
| CATCTGCG | 0.108 |
| CCAAGAGA | -0.165 |
| AGATGCGA | 0.0971 |
| CTCCGGGA | -0.0314 |
| AAGAAGCC | 0.151 |
| CGAGATTA | 0.148 |
| TCGTGGAA | 0.114 |
| CCATTAAC | 0.037 |
| AGACTCTC | -0.203 |
| GAGTAATA | 0.104 |
| ACATTACT | 0.015 |

| Sequence | PBM E-score |
| --- | --- |
| GTTGAAAC | 0.399 |
| TGGCACAA | 0.113 |
| ATAACTGA | 0.053 |
| TACCTAAA | 0.138 |
| GGGCGGAC | 0.0634 |
| CTGTGCGC | 0.0348 |
| AGGTTCAA | 0.0378 |
| ATAGTAGG | -0.0333 |
| CTTCACAC | 0.104 |
| AGTCCCGA | -0.185 |
| CTCGCTGC | -0.0584 |
| GTCCAACA | -0.0893 |
| CTTATGGC | -0.0784 |
| AAGACCGT | -0.112 |
| CTAGCCGA | -0.00765 |
| TAACTCCA | -0.0982 |
| GCGCCTCC | 0.0245 |
| ACGCTGAA | 0.0183 |
| GGGCTTTA | -0.207 |
| CACTTGTC | -0.0538 |
| ACGTCCGG | -0.0191 |
| AGCATCAA | 0.0282 |
| AGTTAGGC | 0.00744 |
| AACGTCAT | -0.0263 |
| AGCAAACG | -0.0967 |

| Sequence | PBM E-score |
| --- | --- |
| ATGAGCGA | 0.0332 |
| ATTTAACC | 0.252 |
| GTTTAGCA | -0.0932 |
| TCTACAGA | -0.082 |
| CACGTTGA | -0.0208 |
| GGTTCGGA | -0.0567 |
| GCGGCACA | 0.0469 |
| GACCCGGC | -0.0043 |
| AAGCGAGA | 0.108 |
| ACCTCGGA | 0.0604 |
| GCCAGGCC | -0.175 |
| AACTCAAC | 0.0375 |
| GTCATCAA | -0.0512 |
| CAAATGAC | -0.0229 |
| GCGTAGTA | -0.0309 |
| AATAGCAC | -0.262 |
| ATTTTCGC | 0.223 |
| CTGGCACA | 0.0177 |
| ATGGGATG | -0.00677 |
| ACCTAAGG | -0.114 |
| ACCTCTGA | -0.0109 |
| GAGAGGGC | -0.308 |
